Here are results for 2 compounds from publication PMC5062570 (Nature Communications, 2016).

For this experiment, the target named is PF-7802-labelled proteins in ARPE-19 cells (Homo sapiens, UniProt P07339). The settings on record: pretreatment 2 µM inhibitor, PF-7802 100 nM, ARPE-19 cells.

Each structure is given as a SMILES string.

Regarding `C[C@@]1(c2cc(-c3cncnc3)c(F)cc2F)CCSC(N)=N1` [LY2811376, reference compound], the “SILAC result for CatD” value is listed as “high SILAC ratios for CatD”.

Regarding `NC1=N[C@@]2(c3cc(NC(=O)c4ccc(F)cn4)ccc3F)COC[C@H]2CS1` [LY2886721, reference compound], the “SILAC result for CatD” value is on record as “not significantly distinguishable from DMSO controls”.
